The series has as its system ATP. The experiment in a line: switch fluorescence ratio, 500 uM ATP over buffer (Cy3 cluster intensity, sum of 5 cycles each) (fold (ratio)); higher = stronger signal-on switching upon ATP binding; sequences stand for … in TCGTCGGCAGCGTCAGATGTGTATAAGAGACAGTTTTTTTTTTTTTTTTTTTTTTTTT…TC. Particulars: aptamer strand: ATP DNA aptamer (quencher-CACCTGGGGGAGTATTGCGGAGGAAGG + anchor), 100 nM annealed; ATP concentration: 500 uM; one replicate. A digest of the protocol:
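Between each of five buffer/ATP cycles, the flow-cell was stripped with NaOH and re-annealed. Each cycle imaged Cy3-labelled switching-strand clusters, annealed to 100 nM quencher-labelled ATP aptamer on a modified Illumina MiSeq flow-cell, first in selection buffer and then after 15 min with 500 uM ATP at 22 °C. The fluorescence ratio is summed target-cycle over summed buffer-cycle Cy3 intensity per cluster, averaged per switch-domain sequence, with clusters outside 100-1000 RFU excluded.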

Values marked as one replicate rest on one cluster of the flow cell; about a third of the high ones do not repeat.
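Further: ATP exposure 15 min at 22 °C before imaging.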

On to TTTGGGTAAC, for which the switch fluorescence ratio is 1.04.
For the sequence ACCGGATCAA, the switch fluorescence ratio amounted to 1.1.
For CGGTGCGTG the value was 1.01; for CGGACGATC, 1.02.
For TCGGGGGAAC the value was 1.18; for TCGCATATCT, 3.02; for AGATCACTGC, 1.05.
Turning to GGAAAAATAG, the switch fluorescence ratio turned out to be 1.01.
For the sequence GTCCGCGGGC, the switch fluorescence ratio was 1.08.
For TTTGAAATCT the value was 1.06; for CTTAATCGCC, 1.01; for TGAGAAATGT, 0.976.
For TATGCCAGA the value was 0.97.
For TCCTCCAAGG the value was 3.8; for CAAATTACCT, 1.28; for CTTAACGGGG, 1.04.
For AATAAGTTGG, the switch fluorescence ratio turned out to be 1.01.
For GTTGAAGCT the value was 0.899; for TGGGCTTCTA, 1.03.
For CGTGGGTGCT the value was 1.03; for TTCGGGGCAC, 0.991; for AAGACCGGCT, 1.05.
For ATGTCCAGTG, the switch fluorescence ratio came out at 1.21.
For CCTCAGCGAC the value was 2.21; for GGTAGCACA, 1.04; for TCAAAGGGGA, 1.
For the sequence CGGCGATTGA, the switch fluorescence ratio worked out at 1.05.
For CCTCGTTACG the value was 1.09; for CAGGCGTCT, 1.06; for GTGAAAGCTC, 0.96.
For GGTGAATGTT the value was 1.
For AATCTTGGAT the value was 0.997; for ATTTGCGTGG, 0.95; for CTGTTTGCGT, 1.06.
With TTGTGTGTA, the switch fluorescence ratio worked out at 1.07.
As for GTTCTCCTGT, the switch fluorescence ratio is 1.05.
On to TCTGCTCTCG, for which the switch fluorescence ratio was found to be 1.01.
For AAGCTCTACT the value was 1.07; for AACGATAGT, 1.
For TGTGGATTGG the value was 0.974; for AGCACATGAC, 1.73; for TGCCGCGGGA, 1.05.
On to CTTCAAAGTG, for which the switch fluorescence ratio is 0.954.
For AAAAGCGTT, the switch fluorescence ratio is 1.
For AACTCATATG the value was 0.975; for CATGTGGGCG, 0.95; for TAGTCTGTTT, 1.02.
For AAAGTGGCCT the value was 1.07; for CCACTTACCA, 1.23; for AGAATTCTGT, 0.97.
For GGAGGCTCGT the value was 1.01.
As for AATACCCTTC, the switch fluorescence ratio is 1.15.
For AGGGTTTCGG the value was 0.977; for GGGATCGAT, 1.04.
For GGGTTTAAAC the value was 1.02.
On to GGTTACCCTC, for which the switch fluorescence ratio turned out to be 1.05.
For GGCATCTCTT, the switch fluorescence ratio was 1.05.
Consider TGTAGTATGC, for which the switch fluorescence ratio was 1.02.
On to GAGATTTAAG, for which the switch fluorescence ratio was determined as 1.03.
With TGTTTTATGA, the switch fluorescence ratio came to 0.921.
Consider CGCTGAGATT, for which the switch fluorescence ratio was 1.01.
For ACAGATTAAG the value was 1.01.
For AGATGAGGCC the value was 1.01.
Consider TGTACACGTG, for which the switch fluorescence ratio was 1.06.
As to TTTTCTTGA, the switch fluorescence ratio stood at 1.04.
For TTGCTACGTA the value was 1.12; for TTTGTTACTG, 1.03; for CACTCCAGGA, 1.07.
With TCAGGCGAAA, the switch fluorescence ratio came to 1.03.
For GCAAGGTCAA the value was 1.02.
In the case of GATGGCCTTT, the switch fluorescence ratio was determined as 1.
For TCGACGGCAC the value was 3.13.
For GAAATATACG the value was 1.03; for ATTAGCAAAA, 1.06; for TGCGAACTTT, 0.987.
For TGGTTAATTA the value was 1.06.
As for AATTCATGAG, the switch fluorescence ratio turned out to be 0.992.
GACCGTGTAC: the switch fluorescence ratio was 2.07.
For GATATTCAGT the value was 1.
In the case of TGCTAAAAGT, the switch fluorescence ratio is 1.01.
For TGAATTAAAT the value was 0.974.
On to TGGTCGTGAA, for which the switch fluorescence ratio came to 0.987.
For GGGTTAATTA the value was 0.958; for CCTTTATACG, 1.28.
For GGGTAGCCTC the value was 0.992; for GTGCTTATGG, 0.973; for ATCATAGCTG, 0.947.
GAGTTTGCAC: the switch fluorescence ratio came to 0.919.
For ATTTTTTAA the value was 0.934; for AAAGTATACC, 1.06.
In the case of ACTGGTAGCT, the switch fluorescence ratio stood at 1.03.
For TCGGCCATGA the value was 1.02.
For CACTTGCAGT the value was 1.04; for AGCTCAAAAG, 0.99.
AGACCTCTAC: the switch fluorescence ratio was 1.31.
In the case of CGAGCTTGCG, the switch fluorescence ratio is 1.04.
For AATAACCCGT the value was 1.15; for GACGTGGCTA, 1.04.
